Measurements taken from PubChem BioAssay AID624255 (Broad Institute, 2012).
Out of some 77,000 compounds screened, about 4,600 (6%) were called active. Inconclusive means that the source gave no clear call. Such entries were picked first, then a sample of the others.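 The calls were made as follows: active = mean inhibition above about 93%, with at least 55% of replicates each passing it (limit read from the data, passing the limit was not always enough); inconclusive = only one of those two conditions holds; inactive = neither condition holds.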

Assay: T. cruzi intracellular proliferation inhibitors, primary screen, cell-based, beta-gal Tulahuen parasites, NIH3T3 host, luminescence (AID 624255)
Details: T. cruzi beta-gal in NIH3T3, GalScreen luminescence, 90 h; at 8.34 µM; stronger effect = higher value

Row | SMILES | inhibition
1 | C/C=C/c1ccc([C@@H]2[C@@H](CO)N(C(C)=O)[C@@H]2CNC(=O)CC2CC2)cc1 | inconclusive: 95.3%
2 | CCCN1C[C@H](C)[C@H](OC)CN(C)C(=O)c2ccc(NC(=O)c3cccc(F)c3)cc2OC[C@H]1C | inactive: 51.1%
3 | COc1ccc(CN(C)C[C@H]2OCCCC[C@H](C)Oc3ccc(NC(=O)Nc4cccc5ccccc45)cc3C(=O)N([C@@H](C)CO)C[C@H]2C)cc1 | inconclusive: 120%
4 | COc1ccc(S(=O)(=O)Nc2ccc3c(c2)C(=O)N([C@H](C)CO)C[C@@H](C)[C@H](CN(C)Cc2ccc4c(c2)OCO4)OCCCC[C@H](C)O3)cc1 | inconclusive: 95.4%
5 | CN1c2ccc(-c3ccc(C#N)cc3)cc2[C@@H]2[C@@H](CCN2C(=O)c2cccc(F)c2)[C@H]1CO | inconclusive: 95.6%
6 | Cc1ccccc1S(=O)(=O)N1CCCCN2[C@H](CO)[C@H](c3ccc(-c4cccc(F)c4)cc3)[C@@H]2C1 | inactive: 80.7%
7 | Cc1noc(C)c1S(=O)(=O)Nc1ccc2c(c1)C(=O)N([C@@H](C)CO)C[C@@H](C)[C@H](CN(C)Cc1ccc(Cl)c(Cl)c1)OCCCC[C@@H](C)O2 | inconclusive: 97.1%
8 | O=C(c1ccc2c(c1)OCO2)N1CCCCN2[C@H](CO)[C@@H](c3ccc(-c4ccccc4)cc3)[C@@H]2C1 | active: 115%
9 | CCC(=O)N1CC[C@@H]2[C@@H](CO)N(C)c3ccc(-c4ccc(F)cc4)cc3[C@@H]21 | inconclusive: 95.2%
10 | C[C@@H]1CCCCO[C@H](CN(C)Cc2ccc3c(c2)OCO3)[C@@H](C)CN([C@H](C)CO)C(=O)c2cc(NC(=O)Nc3ccc(C(F)(F)F)cc3)ccc2O1 | inconclusive: 121%
11 | C[C@H]1CN([C@@H](C)CO)C(=O)Cc2cc(NS(=O)(=O)c3ccc(Cl)cc3)ccc2O[C@@H]1CN(C)Cc1ccc(-c2ccccc2)cc1 | active: 98.9%
12 | C[C@H]1CCCCO[C@H](CN(C)S(=O)(=O)c2ccc(F)cc2)[C@@H](C)CN([C@@H](C)CO)C(=O)c2cc(NS(=O)(=O)c3ccc(Cl)cc3)ccc2O1 | active: 99.3%
13 | CC(C)NC(=O)Nc1ccc2c(c1)C(=O)N([C@H](C)CO)C[C@@H](C)[C@H](CN(C)Cc1ccc(Cl)c(Cl)c1)O2 | inactive: 30.1%
14 | C[C@@H]1CCCCO[C@@H](CN(C)C(=O)CCC(F)(F)F)[C@H](C)CN([C@H](C)CO)C(=O)c2cc(NS(=O)(=O)c3ccc(Cl)cc3)ccc2O1 | inactive: 88.2%
15 | C[C@H]1CN([C@@H](C)CO)C(=O)c2cccc(NC(=O)c3nc4ccccc4s3)c2O[C@@H]1CN(C)Cc1ccc(Oc2ccccc2)cc1 | inconclusive: 89.9%
16 | O=C(c1cccc(F)c1)N1CCCCN2[C@H](CO)[C@H](c3ccc(-c4cncnc4)cc3)[C@H]2C1 | inconclusive: 95.4%
17 | N#Cc1cccc(-c2ccc3c(c2)[C@@H]2[C@@H](CCN2C(=O)c2ccc4c(c2)OCO4)[C@H](CO)N3)c1 | inconclusive: 99.9%
18 | COc1ccc(CN(C)C[C@@H]2OCCCC[C@H](C)Oc3ccc(NC(=O)Nc4ccc(OC)cc4)cc3C(=O)N([C@H](C)CO)C[C@@H]2C)cc1 | active: 99.3%
19 | CCC(=O)N1C[C@@H]2[C@H](c3ccccc31)[C@@H](CO)N2C(=O)CC | active: 102%

Row | SMILES | inhibition
20 | Cc1ccc(S(=O)(=O)N2CC[C@@H]3[C@H](CO)Nc4ccc(Br)cc4[C@@H]32)cc1 | inconclusive: 85.2%
21 | C[C@H](CO)N1C[C@H](C)[C@@H](CN(C)C(=O)CN(C)C)Oc2cc(C#Cc3ccccc3)ccc2S1(=O)=O | inconclusive: 72.9%
22 | C[C@@H]1CCCCO[C@@H](CN(C)C(=O)Nc2ccc(C(F)(F)F)cc2)[C@@H](C)CN([C@H](C)CO)C(=O)c2cc(NS(=O)(=O)c3ccccc3)ccc2O1 | inactive: 53.3%
23 | CO[C@H]1CN(C)C(=O)c2cc(NC(=O)c3cc(C)on3)ccc2OC[C@H](C)NC[C@@H]1C | inactive: -6.09%
24 | C[C@@H]1CCCCO[C@H](CN(C)CC2CCCCC2)[C@H](C)CN([C@H](C)CO)C(=O)c2cc(NC(=O)Nc3ccc(C(F)(F)F)cc3)ccc2O1 | inconclusive: 89.5%
25 | COc1ccc(NC(=O)N2CCCCN3[C@H](CO)[C@H](c4ccc(C#CCC(C)C)cc4)[C@H]3C2)cc1 | inactive: 60.3%
26 | CC(C)CC#Cc1ccc2c(c1)O[C@H](CN(C)Cc1ccccc1F)[C@H](C)CN([C@H](C)CO)S2(=O)=O | inconclusive: 125%
27 | CC(C)C#Cc1ccc2c(c1)O[C@H](CN(C)Cc1ccncc1)[C@@H](C)CN([C@H](C)CO)S2(=O)=O | inconclusive: 118%
28 | O=C(Nc1cc(Cl)cc(Cl)c1)N[C@H]1CC[C@H](CCNS(=O)(=O)c2cccc(F)c2)O[C@@H]1CO | active: 112%
29 | Cc1ccc(S(=O)(=O)N(C)C[C@@H]2OCCCC[C@H](C)Oc3ccc(NC(=O)Cc4ccccc4)cc3C(=O)N([C@H](C)CO)C[C@H]2C)cc1 | inactive: 82.8%
30 | C[C@H](CO)N1C[C@H](C)[C@H](CN(C)C(=O)Nc2ccc(F)cc2)OCCCC[C@H](C)Oc2ccc(NC(=O)Nc3ccc(C(F)(F)F)cc3)cc2C1=O | active: 97.9%
31 | O=C(NCCc1ccncc1)[C@H]1[C@H](CO)[C@H]2Cn3c(ccc(-c4ccccc4)c3=O)[C@@H]1N2 | inactive: 59.6%
32 | C[C@@H]1CN([C@@H](C)CO)C(=O)c2cc(NC(=O)Cc3ccccc3)ccc2O[C@@H]1CN(C)Cc1ccc(Oc2ccccc2)cc1 | inconclusive: 105%
33 | O=C(c1cccc(F)c1)N1CCCCN2[C@@H](CO)[C@H](c3ccc(C#CC4(O)CCCC4)cc3)[C@@H]2C1 | inconclusive: 97.5%
34 | COc1ccccc1CNC(=O)C[C@H]1CC[C@@H]2[C@H](COC[C@@H](O)CN2Cc2cccc(-c3ccncc3)c2)O1 | inconclusive: 97.1%
35 | C[C@@H]1CN([C@@H](C)CO)C(=O)c2cccc(NC(=O)Nc3ccc(C(F)(F)F)cc3)c2O[C@@H]1CN(C)Cc1ccc(-c2ccccc2)cc1 | inconclusive: 119%
36 | COc1ccccc1-c1ccc([C@@H]2[C@@H](C#N)N(C(=O)C3CCOCC3)[C@H]2CO)cc1 | inactive: -16.9%
37 | Cc1cccc(S(=O)(=O)N(C)C[C@@H]2OCc3ccccc3-c3c(n(C)c4ccccc34)C(=O)N([C@H](C)CO)C[C@@H]2C)c1 | inconclusive: 95.1%
38 | CC(C)NC(=O)N(C)C[C@@H]1Oc2cc(C#Cc3cccc(F)c3)ccc2S(=O)(=O)N([C@H](C)CO)C[C@@H]1C | inactive: 60.9%

Row | SMILES | inhibition
39 | C[C@H]1CN([C@@H](C)CO)C(=O)c2cccc(NS(C)(=O)=O)c2O[C@H]1CN(C)S(=O)(=O)c1ccc(F)cc1 | inactive: -34.4%
40 | CO[C@@H]1CN(C)C(=O)c2ccc(NC(C)=O)cc2OC[C@@H](C)N(Cc2cncnc2)C[C@@H]1C | inactive: -408%
41 | COc1ccc(S(=O)(=O)N(C)C[C@H]2OCCCC[C@H](C)Oc3ccc(NS(=O)(=O)c4ccc(C)cc4)cc3C(=O)N([C@H](C)CO)C[C@@H]2C)cc1 | inconclusive: 111%
42 | Cc1ccccc1S(=O)(=O)N(C)C[C@@H]1OCc2ccccc2-c2ccccc2C(=O)N([C@H](C)CO)C[C@@H]1C | inconclusive: 102%
43 | CCCNC(=O)C[C@H]1CC[C@@H]2[C@H](COC[C@H](O)CN2C(=O)Nc2ccc(Cl)c(Cl)c2)O1 | inactive: -64.2%
44 | Cc1cccc(S(=O)(=O)N[C@H]2CC[C@H](CCNC(=O)CCN3CCCCC3)O[C@H]2CO)c1 | inactive: 53.1%
45 | C[C@H](CO)N1C[C@H](C)[C@H](CN(C)Cc2ccc(C(F)(F)F)cc2)Oc2c(NC(=O)c3ccc(-c4nccs4)cc3)cccc2C1=O | inconclusive: 113%
46 | C[C@@H]1CN([C@@H](C)CO)C(=O)c2cccc(N(C)C)c2O[C@@H]1CN(C)Cc1ccc(C(=O)Nc2ccccc2N)cc1 | active: 113%
47 | CC(=O)Nc1ccc2c(c1)C(=O)N(C)[C@@H]1CC[C@H](CC(=O)NCc3ccc(Cl)cc3)O[C@H]1CO2 | inactive: 14.8%
48 | O=C(C1CCC1)N1CCCCN2[C@H](CO)[C@@H](c3ccc(C#CC4CCCC4)cc3)[C@H]2C1 | inconclusive: 96.5%
49 | C[C@@H]1CCCCO[C@@H](CN(C)S(=O)(=O)c2ccc(Cl)cc2)[C@@H](C)CN([C@H](C)CO)C(=O)c2cc(NS(=O)(=O)c3cccs3)ccc2O1 | inactive: 69.2%
50 | C[C@@H]1CN([C@@H](C)CO)S(=O)(=O)c2ccc(-c3ccncc3)cc2O[C@H]1CN(C)Cc1ccccc1 | inconclusive: 103%
51 | C[C@@H]1CN([C@H](C)CO)C(=O)c2ccccc2-c2ccccc2CO[C@H]1CN(C)S(=O)(=O)c1cccs1 | inconclusive: 102%
52 | OC[C@@H]1[C@@H](c2ccc(-c3ccccc3)cc2)[C@@H]2CN(CCC(F)(F)F)CCCCN12 | inactive: 90.9%
53 | C[C@H]1CN([C@@H](C)CO)C(=O)c2cc(NC(=O)Nc3cccc4ccccc34)ccc2O[C@H]1CN(C)Cc1ccc(Cl)c(Cl)c1 | inconclusive: 92.3%
54 | C[C@H]1CCCCO[C@H](CN(C)C(=O)Nc2ccc3c(c2)OCO3)[C@@H](C)CN([C@@H](C)CO)C(=O)c2cc(NC(=O)Cc3ccccc3)ccc2O1 | inconclusive: 95.8%
55 | O=C(c1ccc(F)cc1)N1CC[C@@H]2[C@H](CO)Nc3ccc(-c4ccccc4F)cc3[C@@H]21 | inconclusive: 97.2%
56 | C[C@H]1CN([C@@H](C)CO)S(=O)(=O)c2ccc(C#CCN(C)C)cc2O[C@H]1CN(C)C(=O)CC1CC1 | inconclusive: 99.8%
